The target of the assay is 冠状病毒RaTG13 RBD蛋白 (coronavirus RaTG13). To be noted: remark: other sources report otherwise.

By Kd is commonly meant a measure of binding affinity in units of concentration. Read a high Kd as a looser complex.

B1: IMCAS-72 (antibody)
chain 1: DQVQLVESGGGLVQPGGSLRLSCAASGFTFSSYGMHWVRQAPGKGLEWVAVISYDGSDKYYADSVKGRFTISRDNSKNTLYLQMNSLRAEDTAVYYCARDRDRFGDQGGWFDPWGQGTLVTVSS[human IgG1 constant region skipped]
chain 2: [about 100 residues skipped][about 100 residues skipped]
B1 showed a Kd of 6.21 nM.

The values are drawn from patent CN114395034A.
